The supplement of paper PMC12217912
Some of the results follow. Sequences were assembled here from the parent chain. Inactive controls read about 0.05.

B1: TEV protease; numbered along this chain (parent)
chain: MGESLFKGPRDYNPISSSICHLTNESDGHTTSLYGIGFGPFIITNKHLFRRNNGTLVVQSLHGVFKVKDTTTLQQHLVDGRDMIIIRMPKDFPPFPQKLKFREPQREERICLVTTNFQTKSMSSMVSDTSCTFPSGDGIFWKHWIQTKDGQCGSPLVSTRDGFIVGIHSASNFTNTNNYFTSVPKNFMELLTNQEAQQWVSGWRLNADSVLWGGHKVFMVKPEEPFQPVKEATQL

Variants of: B1
Assay: raw area under fraction-flipped curve 0-4 h after induction (AUC4h, not background-subtracted), DNA-recorder readout of cleavage of the substrate (dimensionless); higher = more cleavage of the substrate by the protease variant
Settings: temperature: 34 °C; time window: 0-4 h after rhamnose induction
Procedure: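 In vivo DNA recorder in E. coli TOP10(DE3) ΔrhaA at 34 °C. Each TEVp single-site mutant (parent TEVp 0) is paired with a single-site variant of the 7-mer TEVs (canonical ENLYFQ|S). The substrate sits between flexible linkers in a Bxb1-sfGFP-TEVs-SsrA fusion, so cleavage stabilises Bxb1 and speeds flipping of a recombination array, read by NGS. The value is the raw area under the fraction-flipped curve over 0-4 h after rhamnose induction (AUC4h), with ≥20 reads per time point. It is not background-subtracted; inactive controls average about 0.047.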
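Note: Bxb1 expression induced with 0.2% (w/v) L-rhamnose at OD600 near 0.5, cultures sampled hourly, flipped fraction per protease–substrate barcode pair counted by paired-end Illumina sequencing.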

Variant | area with substrate ENLAFQS | area with substrate ENLCFQS | area with substrate ENLDFQS | area with substrate ENLEFQS | area with substrate ENLFFQS | area with substrate ENLIFQS | area with substrate ENLNFQS | area with substrate ENLPFQS | area with substrate ENLQFQS | area with substrate ENLSFQS | area with substrate ENLWFQS | area with substrate ENLKFQS | area with substrate ENLLFQS | area with substrate ENLMFQS | area with substrate ENLRFQS | area with substrate ENLVFQS | area with substrate ENLHFQS | area with substrate ENLGFQS | area with substrate ENLTFQS
D79T | 0.0559 | 0.0736 | 0.0742 | 0.0365 | 0.0839 | 0.0764 | 0.0469 | 0.0566 | 0.0551 | 0.0639 | 0.0821 | – | – | – | – | – | – | – | –
M219T | 0.0529 | – | 0.0464 | 0.0637 | 0.0759 | 0.0657 | 0.0669 | 0.0627 | – | 0.0592 | – | 0.0703 | 0.0814 | 0.0752 | 0.0917 | 0.0804 | – | – | –
H29P | 0.0575 | 0.0567 | 0.0597 | – | 0.0747 | 0.0627 | – | 0.0329 | – | 0.0605 | 0.0672 | – | 0.0812 | 0.0628 | 0.0568 | 0.0884 | 0.0702 | – | –
K230S | 0.087 | – | 0.0658 | 0.0569 | 0.0888 | 0.086 | 0.0746 | – | 0.0653 | 0.0681 | 0.0637 | 0.0594 | 0.0735 | – | 0.0721 | 0.0907 | 0.0674 | 0.0853 | 0.0558
K66D | 0.0763 | 0.0577 | 0.048 | – | 0.0803 | – | 0.0586 | – | 0.0414 | 0.0712 | 0.0637 | 0.0701 | 0.0715 | 0.0676 | – | – | 0.0702 | 0.0585 | –
T132C | 0.0691 | 0.0766 | 0.0887 | 0.094 | 0.0828 | 0.0717 | 0.0781 | – | 0.0637 | – | 0.0749 | 0.0728 | 0.0581 | 0.063 | 0.0817 | 0.0729 | 0.0934 | 0.0544 | –
R87H | 0.0493 | 0.0473 | 0.0782 | 0.053 | 0.0818 | – | 0.0655 | 0.0517 | 0.034 | 0.0782 | – | 0.0438 | – | 0.101 | – | – | – | – | 0.0642
S182R | 0.0456 | – | 0.0665 | – | 0.0505 | – | 0.0215 | 0.0559 | 0.0476 | – | 0.0513 | 0.068 | – | – | – | 0.0638 | 0.0508 | – | –
Q151N | 0.0584 | 0.0721 | 0.0633 | 0.0678 | – | 0.0668 | 0.0647 | 0.0656 | 0.051 | 0.0632 | 0.0952 | 0.0698 | 0.0639 | 0.0596 | 0.0584 | – | 0.0662 | 0.057 | 0.0614
C111H | 0.0587 | 0.0654 | – | – | 0.086 | 0.0839 | 0.0687 | – | – | 0.0823 | 0.0697 | 0.0745 | – | – | – | 0.0862 | – | – | –
S26Q | 0.0595 | 0.0763 | 0.0635 | 0.0563 | 0.0704 | 0.0769 | 0.0535 | 0.069 | 0.0507 | 0.061 | 0.0684 | 0.0618 | 0.0696 | – | 0.0592 | 0.0525 | 0.0631 | 0.0659 | 0.0597
G28Q | 0.0633 | 0.0598 | – | – | 0.106 | 0.085 | 0.0705 | 0.0549 | – | 0.0475 | – | 0.0794 | 0.0758 | – | 0.0713 | – | 0.0715 | 0.0767 | –
F117E | 0.0571 | – | 0.0667 | – | 0.0804 | 0.0796 | 0.0507 | 0.0759 | 0.0789 | 0.0728 | – | 0.083 | 0.079 | 0.0658 | – | 0.0632 | – | 0.0539 | –
